Screen size: about 39,000 compounds; about 220 (0.56%) showed activity. This is one part of the list.
test system: Escherichia coli K-12 BW25113; test: relative growth (OD600 normalised to plate interquartile mean) (fraction); higher = less growth inhibition, active = 0.2 or less; details: 50 µM; LB; incubation time: overnight (16-24 h)
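Note: static incubation at 37 °C against the wild-type strain, values averaged over two biological replicates.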

| SMILES | relative growth |
| --- | --- |
| C[C@H]1CN([C@@H](C)CO)C(=O)c2cc(C#CC3CCCCC3)cnc2O[C@H]1CN(C)C(=O)Cc1ccccn1 | inactive: 0.977 |
| COc1ccc(NC(=O)Nc2ccc3c(c2)[C@H]2C[C@H](CC(=O)NCc4ccncc4)O[C@@H](CO)[C@H]2O3)cc1 | inactive: 0.994 |
| Cc1noc(C)c1S(=O)(=O)Nc1ccc2c(c1)C(=O)N([C@H](C)CO)C[C@H](C)[C@@H](CN(C)S(=O)(=O)c1cn(C)cn1)O2 | inactive: 1.01 |
| O=C(C[C@@H]1C[C@H]2c3cc(NC(=O)c4ccc5c(c4)OCO5)ccc3O[C@H]2[C@H](CO)O1)NCC(F)(F)F | inactive: 1.02 |
| C[C@H](CO)N1C[C@H](C)[C@H](CN(C)S(=O)(=O)c2ccccc2)Oc2c(NC(=O)c3cnccn3)cccc2C1=O | inactive: 0.987 |
| C[C@H]1CN([C@@H](C)CO)C(=O)Cc2cc(NS(=O)(=O)c3ccccc3)ccc2O[C@H]1CN(C)Cc1ccc(-c2ccccc2)cc1 | inactive: 1.02 |
| C[C@@H]1CN([C@H](C)CO)C(=O)c2cc(NC(=O)CCC(F)(F)F)ccc2O[C@H]1CN(C)C(=O)Nc1cccc2ccccc12 | inactive: 0.969 |
| COc1ccc(S(=O)(=O)Nc2ccc3c(c2)C(=O)N([C@@H](C)CO)C[C@H](C)[C@H](CN(C)C(=O)Nc2c(C)noc2C)OCCCC[C@H](C)O3)cc1 | inactive: 1.03 |
| COc1ccc(S(=O)(=O)Nc2ccc3c(c2)C(=O)N([C@H](C)CO)C[C@H](C)[C@H](CN(C)C(=O)C2CCCCC2)OCCCC[C@H](C)O3)cc1 | inactive: 1.02 |
| C[C@H](CO)N1C[C@H](C)[C@@H](CN(C)S(=O)(=O)c2cn(C)cn2)OCCCC[C@H](C)Oc2ccc(NC(=O)CCCN(C)C)cc2C1=O | inactive: 0.978 |
| N#Cc1ccc(NCCNC(=N)N)nc1 | inactive: 0.98 |
| C[C@H](CO)N1C[C@H](C)[C@H](CN(C)Cc2ccncc2)OCCCC[C@H](C)Oc2ccc(NC(=O)Cc3ccccc3)cc2C1=O | inactive: 1.04 |
| N[C@@H](C(=O)O)c1ccc(C(=O)O)c(O)c1 | inactive: 0.982 |
| O=C1CCOCCN1 | inactive: 1 |
| CO[C@H]1CN(C)C(=O)c2cc(NS(=O)(=O)c3cn(C)cn3)ccc2OC[C@H](C)N(Cc2cccc(F)c2)C[C@@H]1C | inactive: 1.01 |
| C[C@@H]1CN([C@H](C)CO)C(=O)c2cccc(NC(=O)CCCCCC(=O)Nc3ccccc3N)c2O[C@@H]1CN(C)C(=O)Nc1ccc(F)cc1 | inactive: 1.01 |
| O=[N+]([O-])c1cncn1CCN1CCOCC1 | inactive: 0.978 |
| C[C@@H]1CN([C@H](C)CO)C(=O)c2cc(NC(=O)Cc3cn(C)c4ccccc34)ccc2O[C@@H]1CN(C)Cc1ccc(Oc2ccccc2)cc1 | inactive: 0.975 |
| CN(C)CC#Cc1ccc([C@@H]2[C@@H](CO)N3CCCCN(C(=O)CN(C)C)C[C@H]23)cc1 | inactive: 0.979 |
| C[C@@H]1CN([C@@H](C)CO)C(=O)Cc2cc(NS(=O)(=O)c3cccs3)ccc2O[C@H]1CN(C)Cc1ccc(-c2ccccc2)cc1 | inactive: 0.982 |
| COc1ccccc1-c1cnc2c(c1)C(=O)N([C@@H](C)CO)C[C@H](C)[C@@H](CN(C)C(=O)c1ccncc1)O2 | inactive: 1.01 |

| SMILES | relative growth |
| --- | --- |
| CC(C)C#Cc1cnc2c(c1)C(=O)N([C@@H](C)CO)C[C@H](C)[C@@H](CN(C)S(=O)(=O)c1cn(C)cn1)O2 | inactive: 0.971 |
| COc1ccc(CN(C)C[C@@H]2Oc3c(NC(=O)c4cc(C)nn4C)cccc3C(=O)N([C@H](C)CO)C[C@@H]2C)cc1 | inactive: 0.982 |
| C[C@H](CO)N1C[C@H](C)[C@@H](CN(C)C(=O)Nc2ccc(F)cc2)Oc2ccc(NC(=O)Nc3ccc(C(F)(F)F)cc3)cc2C1=O | inactive: 0.959 |
| O=C(C[C@H]1C[C@@H]2c3cc(NS(=O)(=O)c4ccc(F)cc4)ccc3O[C@@H]2[C@@H](CO)O1)NCc1ccccc1 | inactive: 1.03 |
| COc1ccc2c3c([nH]c2c1)[C@@H](CO)N(C[C@]13CCN(CC1)Cc1ccccc1F)S(=O)(=O)c1cn(cn1)C | inactive: 0.976 |
| O=C1COC(=O)N1C1CCNCC1 | inactive: 1 |
| C=CCOC(=O)[C@H]1[C@@H]2C(=O)O[C@@H](c3ccccc3)[C@@H](c3ccccc3)N2[C@@H](c2ccc(OCCOC(=O)[C@H]3C[C@H]4C(=O)N[C@@H](Cc5ccccc5)C(=O)N4[C@H]3c3ccc(O)cc3)cc2)[C@]12C(=O)Nc1ccccc12 | inactive: 1.08 |
| C[C@@H]1CCCCO[C@@H](CN(C)Cc2ccc3c(c2)OCO3)[C@@H](C)CN([C@H](C)CO)C(=O)c2cc(NS(=O)(=O)c3cccs3)ccc2O1 | inactive: 1.02 |
| CC(C)NC(=O)Nc1ccc2c(c1)C(=O)N([C@H](C)CO[Si](C)(C)C(C)(C)C)C[C@@H](C)[C@H](CN(C)S(=O)(=O)c1ccc(Cl)cc1)O2 | inactive: 1 |
| Cc1ccccc1NCC(=O)NN | inactive: 1.04 |
| CC(C)NC(=O)Nc1ccc2c(c1)CC(=O)N([C@H](C)CO)C[C@@H](C)[C@@H](CN(C)S(=O)(=O)c1ccc(F)cc1)O2 | inactive: 1.01 |
| COc1ccc(NC(=O)Nc2ccc3c(c2)C(=O)N([C@H](C)CO)C[C@@H](C)[C@H](CN(C)S(=O)(=O)c2ccc(C)cc2)OCCCC[C@@H](C)O3)cc1 | inactive: 1.01 |
| C/C=C/c1cccc(-c2nc(C(=O)NCc3ccccc3)cc3c2[C@H](CCO)N([S@@](=O)C(C)(C)C)C3)c1 | inactive: 1.02 |
| C[C@H]1CN([C@@H](C)CO)C(=O)c2cc(NC(=O)Nc3ccc(C(F)(F)F)cc3)ccc2O[C@@H]1CN(C)Cc1ccncc1 | inactive: 1.01 |
| Cc1ccc(S(=O)(=O)N(C)C[C@@H]2OCCCC[C@H](C)Oc3ccc(NS(=O)(=O)c4ccc(Cl)cc4)cc3C(=O)N([C@@H](C)CO)C[C@H]2C)cc1 | inactive: 1.03 |
| C[C@@H]1CCCCO[C@H](CN(C)S(C)(=O)=O)[C@@H](C)CN([C@@H](C)CO)C(=O)c2cc(NC(=O)Nc3cccc4ccccc34)ccc2O1 | inactive: 1 |
| C[C@@H]1CN([C@@H](C)CO)S(=O)(=O)c2ccc(-c3ccc(F)cc3)cc2O[C@H]1CN(C)S(C)(=O)=O | inactive: 0.998 |
| N[C@@H]1CONC1=O | inactive: 0.987 |
| C[C@@H]1CN([C@@H](C)CO)C(=O)c2cc(NC(=O)C3CCCCC3)ccc2O[C@@H](C)CCCCO[C@@H]1CN(C)CC1CCCCC1 | inactive: 0.997 |
| Oc1c(Cl)cc(Cl)cc1Sc1cc(Cl)cc(Cl)c1O | inactive: 0.202 |
| C[C@@H]1CN([C@H](C)CO)C(=O)c2cccc(NS(C)(=O)=O)c2O[C@@H]1CN(C)Cc1ccc(C(=O)O)cc1 | inactive: 0.986 |

| SMILES | relative growth |
| --- | --- |
| O=C(C[C@@H]1C=C[C@@H](NC(=O)CN2CCOCC2)[C@H](CO)O1)NCCc1ccncc1 | inactive: 0.993 |
| Cc1ccc(S(=O)(=O)N(C)C[C@@H]2Oc3c(NS(C)(=O)=O)cccc3C(=O)N([C@@H](C)CO)C[C@H]2C)cc1 | inactive: 0.995 |
| C[C@@H]1CN([C@@H](C)CO)C(=O)Cc2cc(NC(=O)Nc3ccc(C(F)(F)F)cc3)ccc2O[C@@H]1CN(C)Cc1ccc(-c2ccccc2)cc1 | inactive: 1.01 |
| Cc1noc(C)c1S(=O)(=O)Nc1ccc2c(c1)C(=O)N([C@H](C)CO)C[C@H](C)[C@H](CN(C)C(=O)Nc1cccc3ccccc13)OCCCC[C@H](C)O2 | inactive: 1.02 |
| COc1ccc(S(=O)(=O)N(C)C[C@@H]2Oc3ccc(NC(=O)c4ccncc4)cc3CC(=O)N([C@H](C)CO)C[C@@H]2C)cc1 | inactive: 0.995 |
| CC(C)CNC(=O)C(=O)NC[C@H]1OCCN1S(=O)(=O)c1ccc2c(c1)OCCO2 | inactive: 1.01 |
| C[C@@H]1CN([C@@H](C)CO)C(=O)Cc2cc(NS(C)(=O)=O)ccc2O[C@H]1CN(C)S(=O)(=O)c1ccc(Cl)cc1 | inactive: 1.02 |
| COc1ccc(S(=O)(=O)N[C@H]2C=C[C@H](CC(=O)NCCc3ccncc3)O[C@H]2CO)cc1 | inactive: 1.01 |
| O=C(C[C@@H]1CC[C@H](NC(=O)C2CC2)[C@@H](CO)O1)NCCCN1CCOCC1 | inactive: 0.987 |
| COc1ccccc1NC(=O)N(C)C[C@@H]1Oc2cc(Br)ccc2S(=O)(=O)N([C@H](C)CO)C[C@H]1C | inactive: 1 |
| Cc1cc(C(=O)Nc2cccc3c2O[C@@H](CN(C)C(=O)NC2CCCCC2)[C@@H](C)CN([C@@H](C)CO)C3=O)n(C)n1 | inactive: 1 |
| C[C@H]1CN([C@@H](C)CO)C(=O)Cc2cc(NS(=O)(=O)c3ccc(Cl)cc3)ccc2O[C@@H]1CN(C)Cc1ccc(-c2ccccc2)cc1 | inactive: 0.918 |
| C[C@@H]1CN([C@@H](C)CO)C(=O)Cc2cc(NS(=O)(=O)c3cccs3)ccc2O[C@H]1CN(C)S(=O)(=O)c1ccccc1 | inactive: 0.937 |
| Cc1noc(C)c1NC(=O)N(C)C[C@H]1Oc2c(NS(=O)(=O)c3cn(C)cn3)cccc2C(=O)N([C@H](C)CO)C[C@H]1C | inactive: 0.975 |
| COc1ccc(NC(=O)Nc2ccc3c(c2)C(=O)N([C@@H](C)CO)C[C@@H](C)[C@H](CN(C)C(=O)Cc2ccccc2)OCCCC[C@H](C)O3)cc1 | inactive: 0.982 |
| CCCCOc1ccc(CC(=O)NO)cc1 | inactive: 0.857 |
| CCCC#Cc1ccc2c(c1)O[C@@H](CN(C)S(=O)(=O)c1cccc(OC)c1)[C@@H](C)CN([C@@H](C)CO)S2(=O)=O | inactive: 1.03 |
| COc1ccc(-c2coc3cc(O)cc(OC)c3c2=O)cc1 | inactive: 0.962 |
| COc1cc(OC)cc(C(=O)OCCN2CCCN(CCOC(=O)c3cc(OC)cc(OC)c3)CC2)c1 | inactive: 0.981 |

Source: the supplement of paper PMC9446081
